The text below walks through data of paper PMC4550849 (Scientific Reports, 2015).

The assay deals with cathepsin B (Mus musculus, UniProt P10605). The procedure:
Cathepsin B activity in total cell lysates was determined using an InnoZyme ™ cathepsin B activity assay kit (EMD Milipore) and performed according to the manufacturer’s instruction. […] Cellular cathepsin B activity with and without drugs was tested by pre-treating cells with drugs for 1 hour, followed by lysing cells and testing cathepsin B activity with a fluorescently labeled substrate. […] . Fluorescence intensity indicating cathepsin B activity was measured at an excitation wavelength of 370 nm and emission wavelength of 450 nm (Molecular Devices, Spectra Max 384 PLUS).
the activity of host cathepsin B. FRET assay showing the activity of cathepsin B
µM. RAW264.7 cells were treated with drugs for 1 hour prior to lysis and
determination of cathepsin B activity (a), or untreated RAW264 cells were lysed, the
lysate was treated with drugs, and then the activity of cathepsin B was assessed […]
`CCN(CC)Cc1cc(Nc2ccnc3cc(Cl)ccc23)ccc1O` [AQ, Amodiaquine]: the “cathepsin B activity in protein lysate from cells not exposed to drugs” value is recorded as “inhibited cathepsin B activity” and the “cathepsin B enzymatic activity in cells pre-treated with drug” value (shortened to “cathepsin B enzymatic activity”) is “lost cathepsin B enzymatic activity in a dose dependent manner”.

Take `CCN(CC)CCCC(C)Nc1ccnc2cc(Cl)ccc12` (centres unmarked) [CQ, Chloroquine]: the “cathepsin B activity in protein lysate from cells not exposed to drugs” value is listed as “weaker inhibitors” and the “cathepsin B enzymatic activity” value is on record as “weaker inhibitors”.

With `CCNCc1cc(Nc2ccnc3cc(Cl)ccc23)ccc1O` [DEAQ, Desethyl-Amodiaquine], the “cathepsin B activity in protein lysate from cells not exposed to drugs” value is “inhibited cathepsin B activity” and the “cathepsin B enzymatic activity” value is recorded as “lost cathepsin B enzymatic activity in a dose dependent manner”.

For `CCNCCCC(C)Nc1ccnc2cc(Cl)ccc12` (centres unmarked) [DECQ, Desethyl-Chloroquine], the “cathepsin B activity in protein lysate from cells not exposed to drugs” value is “weaker inhibitors” and the “cathepsin B enzymatic activity” value is listed as “weaker inhibitors”.
